Sequences and labels used below:
B1: PhoQ; a variant is named by its letters at X, in order, P23837 (parent)
chain: MKKLLRLFFPLSLRVRFLLATAAVVLVLSLAYGMVALIGYSVSFDKTTFRLLRGESNLFYTLAKWENNKLHVELPENIDKQSPTMTLIYDENGQLLWAQRDVPWLMKMIQPDWLKSNGFHEIEADVNDTSLLLSGDHSIQQQLQEVREDDDDAEMTHSVAVNVYPATSRMPKLTIVVVDTIPVELKSSYMVWSWFIYVLSANLLLVIPLLWVAAWWSLRPIEALAKEVRELEEHNRELLNPATTRELTSLVRNLNRLLKSERERYDKYRTTLTDLTHSLKTPLXXLQXXLRSLRSEKMSVSDAEPVMLEQISRISQQIGYYLHRASMRGGTLLSRELHPVAPLLDNLTSALNKVYQRKGVNISLDISPEISFVGEQNDFVEVMGNVLDNACKYCLEFVEISARQTDEHLYIVVEDDGPGIPLSKREVIFDRGQRVDTLRPGQGVGLAVAREITEQYEGKIVAGESMLGGARMEVIFGRQHSAPKDE

The source of these data is a collection of fitness landscapes (doi:10.1126/science.1257360).

The other results are listed elsewhere or left out.

The variants in the experiment derive from B1. Kind of experiment: enrichment ratio after two sorts for PhoP signalling (ratio (wild type AVST 3.29)); higher = more functional. The settings on record: with PhoP (E. coli).
For the variant PGQV, the enrichment ratio was ≤ 0.25.
The value for HTAQ was ≤ 0.25.
The figure for GQMD is ≤ 0.25; for IDCN it is ≤ 0.25; for NDWR it is ≤ 0.25.
IWGG: the enrichment ratio was ≤ 0.25.
The figure for RCIV is ≤ 0.25.
The figure for RLFG is ≤ 0.25; for SAWV it is ≤ 0.25.
The value for ILYY was ≤ 0.25; that for KDHS was ≤ 0.25.
Take GQFT: the enrichment ratio was ≤ 0.25.
The figure for VYVW is ≤ 0.25.
The value for QSRV was ≤ 0.25.
In the case of KNWI, the enrichment ratio is ≤ 0.25.
The figure for VPTL is ≤ 0.25; for AFHG it is ≤ 0.25; for DATC it is ≤ 0.25.
For the variant IMNC, the enrichment ratio was ≤ 0.25.
For TYTE, the enrichment ratio is ≤ 0.25.
The figure for QHIK is ≤ 0.25; for NIIV it is ≤ 0.25; for AFCI it is ≤ 0.25.
Consider VGDM, for which the enrichment ratio is ≤ 0.25.
The value for FFMP was ≤ 0.25; that for ICNW was ≤ 0.25; that for PPCC was ≤ 0.25.
The figure for SHAH is 5.87; for HWYF it is ≤ 0.25.
Regarding FHSH, the enrichment ratio is ≤ 0.25.
As to PGDY, the enrichment ratio was ≤ 0.25.
The value for FLMW was ≤ 0.25; that for NPIM was ≤ 0.25; that for VTIW was ≤ 0.25.
The value for HITC was ≤ 0.25.
For the variant VEVA, the enrichment ratio is ≤ 0.25.
For the variant FDES, the enrichment ratio was ≤ 0.25.
For the variant MMVT, the enrichment ratio is ≤ 0.25.
SDAP: the enrichment ratio is ≤ 0.25.
The value for YIAI was 0.393; that for VGEL was ≤ 0.25.
For RLFK, the enrichment ratio was ≤ 0.25.
As for TQRH, the enrichment ratio was ≤ 0.25.
The figure for GHFW is ≤ 0.25; for ASHI it is ≤ 0.25.
The value for DYVS was ≤ 0.25.
The value for VVQH was ≤ 0.25.
Turning to AKQV, the enrichment ratio is ≤ 0.25.
The value for WWSF was ≤ 0.25.
The figure for MGCP is ≤ 0.25; for LVRP it is ≤ 0.25; for PHCK it is ≤ 0.25.
The value for ERYN was ≤ 0.25; that for WPDM was ≤ 0.25; that for WSIE was ≤ 0.25.
With NPFW, the enrichment ratio was ≤ 0.25.
For MVWT, the enrichment ratio is ≤ 0.25.
The figure for KRCN is ≤ 0.25.
The value for SFEL was ≤ 0.25; that for YRML was ≤ 0.25.
Consider IPDN, for which the enrichment ratio is ≤ 0.25.
With VKRA, the enrichment ratio is ≤ 0.25.
As to DKIH, the enrichment ratio is ≤ 0.25.
The value for RGLM was ≤ 0.25.
As to STSW, the enrichment ratio was ≤ 0.25.
As to RSQY, the enrichment ratio was ≤ 0.25.
Consider AHKA, for which the enrichment ratio was ≤ 0.25.
As to DPMF, the enrichment ratio was ≤ 0.25.
Take GRNN: the enrichment ratio is ≤ 0.25.
The figure for QIFC is ≤ 0.25; for WDPT it is ≤ 0.25; for RGTI it is ≤ 0.25.
The value for YFRV was ≤ 0.25; that for VLVG was ≤ 0.25.
The value for NLQW was ≤ 0.25.
For the variant SDFW, the enrichment ratio is ≤ 0.25.
Turning to PTPY, the enrichment ratio is ≤ 0.25.
The value for VFNV was ≤ 0.25; that for LHAC was ≤ 0.25.
For the variant VMSK, the enrichment ratio was ≤ 0.25.
As to EQLD, the enrichment ratio was ≤ 0.25.
The figure for WLHM is ≤ 0.25; for QCKT it is ≤ 0.25.
The figure for DDQA is ≤ 0.25.
The value for DSTG was ≤ 0.25.
With FHGC, the enrichment ratio is ≤ 0.25.
Regarding ANHC, the enrichment ratio was ≤ 0.25.
The value for WIGL was ≤ 0.25; that for PVII was ≤ 0.25; that for DTWS was ≤ 0.25.
Take NDSD: the enrichment ratio was ≤ 0.25.
The figure for HNLV is ≤ 0.25; for EVFY it is ≤ 0.25.
The figure for RSRM is ≤ 0.25; for IAHP it is ≤ 0.25; for NNMS it is ≤ 0.25.
As to PRDW, the enrichment ratio was ≤ 0.25.
The figure for ALKV is ≤ 0.25; for PAVH it is ≤ 0.25; for YCNS it is ≤ 0.25.
As for EVTI, the enrichment ratio was ≤ 0.25.
Take IPWK: the enrichment ratio is ≤ 0.25.
With LGRH, the enrichment ratio is ≤ 0.25.
For MCKS, the enrichment ratio is ≤ 0.25.
The figure for SWIA is ≤ 0.25; for NCPV it is ≤ 0.25; for IHVF it is ≤ 0.25.
The value for WMTD was ≤ 0.25.
The value for YNCH was ≤ 0.25; that for MGKK was ≤ 0.25.
Take HLDR: the enrichment ratio was ≤ 0.25.
For the variant TKPF, the enrichment ratio is ≤ 0.25.
As to LLWT, the enrichment ratio is ≤ 0.25.
For the variant HHMY, the enrichment ratio was ≤ 0.25.
The value for HRKE was ≤ 0.25.
The value for KCAV was ≤ 0.25; that for AISP was ≤ 0.25.
Consider YQSQ, for which the enrichment ratio was ≤ 0.25.
In the case of TYMP, the enrichment ratio was ≤ 0.25.
In the case of MMGQ, the enrichment ratio was ≤ 0.25.
Regarding QNWW, the enrichment ratio is ≤ 0.25.
Turning to RLVE, the enrichment ratio is ≤ 0.25.
As to TAES, the enrichment ratio was ≤ 0.25.
The value for QLGP was ≤ 0.25; that for PKHR was ≤ 0.25; that for FFKP was ≤ 0.25.
GSKV: the enrichment ratio is ≤ 0.25.
The figure for HLYS is ≤ 0.25; for DPCT it is ≤ 0.25.
For MYMA, the enrichment ratio is ≤ 0.25.
For ETQD, the enrichment ratio was ≤ 0.25.
The figure for LNPN is ≤ 0.25.
Turning to WYAF, the enrichment ratio is ≤ 0.25.
For YYEH, the enrichment ratio was ≤ 0.25.
The value for LDMS was ≤ 0.25; that for LPPK was ≤ 0.25; that for PKNR was ≤ 0.25.
VSEM: the enrichment ratio was ≤ 0.25.
Turning to YAAW, the enrichment ratio is ≤ 0.25.
The figure for KSVL is ≤ 0.25; for IILL it is 1.2.
The figure for DWMI is ≤ 0.25.
On to FSQR, for which the enrichment ratio is ≤ 0.25.
The figure for SASQ is 9.12; for HEGH it is ≤ 0.25; for RLCY it is ≤ 0.25.
Consider MFKI, for which the enrichment ratio is ≤ 0.25.
Regarding TMYR, the enrichment ratio is ≤ 0.25.
The value for GVMY was ≤ 0.25.
With ESGC, the enrichment ratio is ≤ 0.25.
The figure for LKKY is ≤ 0.25; for YRRT it is ≤ 0.25; for HDYT it is ≤ 0.25.
